These results are taken from the supplement of paper PMC11417369.

± gives the standard deviation of the averaged measurements. The list shows a part of the results.

The experiment deals with PfAP2-G AP2 domain (GST-tagged). Briefly: gcPBM binding intensity (ln(normalized median fluorescence intensity)); higher = stronger DNA binding. The method in brief: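 Binding intensity is the highest Masliner-normalised natural-log median intensity over replicate spots in either probe orientation. To obtain it, GST-tagged P. falciparum DNA-binding domains made in E. coli were incubated for 1 h on an Agilent 4 × 180k array of primer-extended double-stranded 36-bp intergenic genomic probes plus negative controls. Detection used Alexa488 anti-GST antibody with scanning at 488 nm.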
With “TTATATTTATATATTTGTACGTATGTATATAATTCA [XGTACX_site2993]”, the “gcPBM binding intensity (ln)” value is 11.4 ± 0.97.
With “ATTCTAATAATATATACACACACATATATATTTATA [CACACA_site8629]”, the “gcPBM binding intensity (ln)” value was determined as 9.96 ± 0.12.
The figure for “CTTTTTTAAAATATTTAACACACAATTTTAATGCAT [CACACA_site9303]” is 10.1 ± 0.21.
In the case of “AAAATTAGGAGACATGCATGTAACGATAAATATAAC [TGCATGCA_site148]”, the “gcPBM binding intensity (ln)” value worked out at 10.14 ± 0.071.
The figure for “AAAAAATGAAAATATTCCAAAATAGAGGGAAATGTA [GTGCAC_negctrl_site572]” is 9.66 ± 0.13; for “TATGTGATAACACGCACACAAATGTATTTAATTTAT [CACACA_site5435]” it is 9.995 ± 0.035; for “CACAAAAATGTAATCACACATATATATATATATATA [CACACA_site5818]” it is 10.5 ± 0.11.
In the case of “GTTACATACATATACACACACATATATATATATATA [CACACA_site901]” it was 10.06 ± 0.042; in that of “TAAATAATTCTTTTAGTACACACGAATAAGCAGATA [CACACA_site305]”, 11.2 ± 0.87.
In the case of “TAAAAAAAATCATTCACACATATATGAAAAAAAAAA [CACACA_site5546]” it was 9.615 ± 0.092; in that of “TAGATACCTATAGAAACATGCAATTGAATATATTTC [TGCATGCA_site402]”, 9.745 ± 0.007.
As for “TTCTTACACGTTTGCACACTAAAATATATATATATA [CACACA_site434]”, the “gcPBM binding intensity (ln)” value was 10.3 ± 0.25.
The figure for “TAATTTTTATTCAAGAGTACACAAAAGATAACTAAA [XGTACX_site4060]” is 11.4 ± 0.86; for “AGGCTGCCATATTATACACACATTTTTAAAAAAATT [CACACA_site3843]” it is 10.1 ± 0.13.
Turning to “TAAAAATTTACATGTTGTACATATAATTATATAATC [XGTACX_site4577]”, the “gcPBM binding intensity (ln)” value stood at 11.1 ± 0.63.
As to “AAATATTACCATGTGAAAATTTTACTGCAACATGAA [TGCATGCA_negctrl_site609]”, the “gcPBM binding intensity (ln)” value is 10.1 ± 0.11.
Consider “AAAATGAACTCACGAGCACACACACCCATATATATA [CACACA_site8247]”, for which the “gcPBM binding intensity (ln)” value is 10.3 ± 0.25.
In the case of “TGTATTATATAAAATTGTACATGCGAATTGTATAAC [XGTACX_site902]” it was 10.8 ± 0.58.
The figure for “TATAGCTATGTATTCACACATAATATAAACTTTAAT [CACACA_site5889]” is 9.93 ± 0.014; for “ATATTAAACAGACACACACACATATATTTATTTATA [CACACA_site7564]” it is 10.01 ± 0.021; for “TATAGCATATCTCACACACACATAATGAATATTATA [CACACA_site5877]” it is 9.87 ± 0.085.
In the case of “TAATATTCCTTTTTAACACACATATGAACAAATAAA [CACACA_site153]” it was 10.1 ± 0.16; in that of “ATAAAATGAAATATATATGTGTATGCTTAACTTGTT [CACACA_negctrl_site431]”, 9.835 ± 0.007; in that of “AAAGGATGTAATATAAACATATATATGTATATATAT [TGCATGCA_negctrl_site347]”, 9.565 ± 0.035.
In the case of “TAATTTTTTTTAATAACACACATATATATATATATA [CACACA_site813]”, the “gcPBM binding intensity (ln)” value turned out to be 10.2 ± 0.69.
In the case of “ATTGTTTTATATAGAACACACATAAAAATATATATG [CACACA_site1193]” it was 10.2 ± 0.23.
The figure for “AATAAAATATTATGTGCATGCTGTTTTATTTATTAA [TGCATGCA_site102]” is 9.56 ± 0.32.
In the case of “TTGGTGGATAAATTTACACACAATAATTTTCGTTCA [CACACA_site467]”, the “gcPBM binding intensity (ln)” value amounted to 10 ± 0.14.
The figure for AATTCACCAAAAAAAGTGCATATTCAATATATATTA is 10 ± 0.15.
In the case of “ACAAAATGTAAATAAACACACATATTTATATTTATA [CACACA_site6719]” it was 9.79 ± 0.042.
The figure for “ATATATATATATATATGTACATATGTGTATATAACT [XGTACX_site495]” is 11.1 ± 0.56; for “AAATAAAAAAATACCCAACACCATGCCAAATGTGAA [CACACA_negctrl_site411]” it is 9.89 ± 0.13.
Take “TAAAACAAAACAAAAATAGGATTATATTCCTTTTTT [CACACA_negctrl_site1003]”: the “gcPBM binding intensity (ln)” value is 9.59 ± 0.3.
In the case of “ATAATTTCAATATTTAATATCATATATATATATTTT [GTGCAC_negctrl_site713]” it was 9.56 ± 0.13; in that of “TAAAATTCGAAAAATTGTACTATTTATATATCTGTA [XGTACX_site6478]”, 10.9 ± 0.65; in that of “CTAATTAATATTTGTACACACATATTTAACCTACTA [CACACA_site3191]”, 11.4 ± 0.95.
In the case of “TATATAAGTATAAAATGTACATAAAATTTTATGTTA [XGTACX_site2613]” it was 11.1 ± 0.76; in that of “TAGTTAGGCCCTACATGTACATAATATATATTACTT [XGTACX_site1137]”, 11.1 ± 0.47; in that of “ATCAACATTACATTTAGTACACATATATTTCTATGT [XGTACX_site4436]”, 11.2 ± 0.76.
The figure for “TATGTTGATGATGATAGTACATATGAGTTCAAAAAA [XGTACX_site7712]” is 10.9 ± 0.63.
As for “AAGACACAAAAACACACACACATACATACATACATA [CACACA_site454]”, the “gcPBM binding intensity (ln)” value stood at 10.1 ± 0.18.
The figure for “TAAAAAAACGCACTCGTACACACATATTTTCTTTCT [CACACA_site3090]” is 11.3 ± 0.8; for “TTTTATGATTGACACACACACAAAAAAAAAAAAAAA [CACACA_site7860]” it is 10.2 ± 0.59.
Consider “TGTTTTGTTGTGTATTGTACTAATATAAATATATAA [XGTACX_site1852]”, for which the “gcPBM binding intensity (ln)” value stood at 11.3 ± 0.89.
In the case of “AAAAAAAGAAATAATAAAAAATATATATATATATAT [GTGCAC_negctrl_site702]” it was 10.1 ± 0.91.
As to “CGTACATAATTTTAATCACACACAAACAAACACATA [CACACA_site7947]”, the “gcPBM binding intensity (ln)” value was found to be 10.6 ± 0.45.
Take “TATATTTGGAAAACATGTACATATAACAATATGTAA [XGTACX_site324]”: the “gcPBM binding intensity (ln)” value was determined as 11.3 ± 0.8.
On to “AATAAAAAAGGAAACAAATTAATATATATATATATA [CACACA_negctrl_site467]”, for which the “gcPBM binding intensity (ln)” value is 9.89 ± 0.53.
The figure for “TTTAATACTTTATATGCATGCAGAGAAAAATGCTTG [TGCATGCA_site286]” is 10 ± 0.12; for “AAAAAAAAGTATGATTCTAAATTTATGTATATATAA [GTGCAC_negctrl_site669]” it is 9.975 ± 0.021; for “GAAAGGGCAGGAACTATTAATACACTGATCGATAAG [CACACA_negctrl_site1458]” it is 10.2 ± 0.25.
In the case of “AATTATAGCTGTATCTGTACGCATTTATTTATAGAC [XGTACX_site5959]” it was 11.6 ± 1; in that of “TTAAATAATATTAGCCGTACAATTTAAAGATAATAA [XGTACX_site8503]”, 11 ± 0.64.
Turning to “CAATTTTGCCCTTCCTGTACATATATTGAAAAATAT [XGTACX_site6388]”, the “gcPBM binding intensity (ln)” value turned out to be 11 ± 0.67.
The figure for “ATCTAGTACATACATACACACAACAATGTTATGAGA [CACACA_site3989]” is 10.9 ± 0.71.
The figure for “ATACATATAGGATGCACACATAATTCAAATACAATA [CACACA_site651]” is 10.2 ± 0.24.
